# According to the supplement of paper PMC11417369:
# ± gives the standard deviation of the averaged measurements. This is one part of the list.
# System: PfAP2-EXP AP2 domain (GST-tagged)
# Experiment: gcPBM binding intensity (ln(normalized median fluorescence intensity)); higher = stronger DNA binding
# How it was run: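 An Agilent 4 × 180k array carrying primer-extended double-stranded 36-bp intergenic genomic probes and negative controls received GST-tagged P. falciparum DNA-binding domains expressed in E. coli, about 25 μg on average, for 1 h. The binding buffer contained 1× PBS, 1% milk, 0.2 mg/ml BSA, 0.5% salmon testes DNA and 0.03% Triton X-100. Binding intensity is the top Masliner-normalised natural-log median intensity across replicate spots of either probe orientation, read after Alexa488 anti-GST antibody staining and a 488 nm scan.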
row,Sequence,gcPBM binding intensity (ln)
1,AATATATAGAGAGATATGCACACTGTATGAATGCAC [CACACA_site2677],8.58 ± 0.014
2,TATATTAATAATAAGTGTACATATATATATATTTTT [XGTACX_site288],8.36 ± 0.3
3,ATTTGTAAAAAATTCATACACACGTCTTATTTTTAA [CACACA_site1390],8.29 ± 0.41
4,AATGAGAAATATAATTGTACATATATTTATTTTCAT [XGTACX_site3669],8.24 ± 0.33
5,TATTTTTTCTTTCATTGTACTTTTTTTTTGTTTTGT [XGTACX_site4081],8.77 ± 0.47
6,AAAAAATTAATATTGACACACATTTTTAAGAATAAT [CACACA_site239],8.22 ± 0.47
7,AAACAAAAAATTTAAAGTACAAAAATTATGATTGTT [XGTACX_site465],8.54 ± 0.54
8,AATATGTCTATATTTTTTATATGGAAATATTATAAA [GTGCAC_negctrl_site700],7.92 ± 0.39
9,CAAAAGGATAGGCACACACACACACCCATATATATA [CACACA_site2199],8.8 ± 0.49
10,TTTTTTTTTTTTTTTTTTTTTTTATCTATTATTTAT [XGTACX_negctrl_site496],8.05 ± 0.23
11,TATTTATATTTATATACACACATACATATTTATATT [CACACA_site6535],8.41 ± 0.33
12,TCTTAATTTGTTATATGTACATAATATAATTGTATA [XGTACX_site5184],8.59 ± 0.33
13,TATTTTGTAATAATTACACACGGAATTATAACAGAA [CACACA_site2355],8.69 ± 0.43
14,ATATATATATTTATATTTATATGTAAATATCAACGT [TGCATGCA_negctrl_site32],9.24 ± 0.057
15,TTATATTAATAAAAAGAAAATCATTTTTTCTTTTAT [CACACA_negctrl_site1595],7.96 ± 0.39
16,AATATTATGTATAACCGTACATTATATATATAATAA [XGTACX_site1594],8.38 ± 0.4
17,ATTGTGTTAATGAAATGTACATTTTCTCTACGTTAA [XGTACX_site1322],8.8 ± 0.52
18,TCCTACATATTATAGTGTACATTTTCATGTTCATAT [XGTACX_site4308],8.62 ± 0.39
19,AAGTATTATATATTTTGTACATATATAAAACCACAA [XGTACX_site5508],8.44 ± 0.38

row,Sequence,gcPBM binding intensity (ln)
1,ATTAAAATAATTTAATTTCTTAGACACAATTTGTAA [GTGCAC_negctrl_site331],8 ± 0.53
2,GTGTAAAGGTATTATTGTATTATTCAAAATAAAAAA [CACACA_negctrl_site637],8.29 ± 0.39
3,TTAAACTTGTTTTGGATGCACTATATAATTCATTTT [GTGCAC_site9549],8.31 ± 0.3
4,ACAGAATACATATACACACATACAAAAAAGTGCATA [CACACA_site987],8.71 ± 0.39
5,CATTATGTTGTAAATGCACACATACATATACACAGT [CACACA_site8990],8.71 ± 0.16
6,TCATACTGTATATTTTGTACTTATATATATATTATA [XGTACX_site6136],8.81 ± 0.34
7,ATAATAAGCAAACACACACACACAAAAAAAAAAAAA [CACACA_site720],8.36 ± 0.52
8,TTATTTTGTTTTAAAAGTACACACTTTTAATTAGAT [XGTACX_site2271],8.36 ± 0.29
9,TATATAAACACGTACACACACATATAGGTATTTATA [CACACA_site7615],8.71 ± 0.49
10,AAAAGATTGCTCCGCATGCACCTCCAAAAGTTCCTT [GTGCAC_site9993],9.1 ± 0.21
11,TACAAAAGCGATACGGCACACATTTCCTGTTTAAAT [CACACA_site2746],8.74 ± 0.33
12,TTTGCTTCCAAAAGTCGTACAAAAAATATTAAATAT [XGTACX_site4171],8.58 ± 0.23
13,TATACATATAAATTGTGTACACATATATATATATTT [XGTACX_site7875],8.73 ± 0.22
14,TATCAAAATTAGTATACACACAAAATTATTCAAATA [CACACA_site2232],8.2 ± 0.42
15,TAAAAGGAAAAAAAAGCACACACAATATTACTTGAA [CACACA_site8831],8.57 ± 0.51
16,AATATATAAATTAATACATGCACATATAGAAAGGGA [TGCATGCA_site472],9.35 ± 0.32
17,CTTTTTACTTAATACACACACACACTAGAAAAAAAA [CACACA_site4680],8.84 ± 0.62
18,CTTTTCTTTTTTTTTTGTACATAAAATTATTCCTTA [XGTACX_site3924],8.7 ± 0.44
19,TTTTGTTGCTCTTTTTTTTTTTTTTTTAACTGTATG [CACACA_negctrl_site1072],8.57 ± 0.43

row,Sequence,gcPBM binding intensity (ln)
1,AATATAGTCACACATACACACATATAGATTTATATA [CACACA_site7223],8.48 ± 0.42
2,AAAAAAAAAAAAAGGTGTACATAAGTAAATTCATAT [XGTACX_site4206],8.7 ± 0.54
3,AACCAATATGTGTATACACACATAAATATAAATATA [CACACA_site7729],8.41 ± 0.31
4,TACAAACACCCATATACACACAAAAAAAAAATAAAA [CACACA_site5421],8.4 ± 0.59
5,AGAAAAACTTATATGATACACACGATAAACAAAATA [CACACA_site1038],8.72 ± 0.59
6,TATATAATATATATATGTACATATATATATGTTTTT [XGTACX_site3347],8.32 ± 0.2
7,TATACATAAAACAGTTCACACATTGTATGAATATAT [CACACA_site4751],8.54 ± 0.57
8,TACGTATTTTAATATTTACACACTTATTTTTTATAT [CACACA_site7924],8.78 ± 0.44
9,TTGTTTCTTTTTTTTTGTACATATATATTGTATATT [XGTACX_site7602],8.86 ± 0.6
10,AATTTTTCAAATTAATGTACTTGTTATAAATTGTAA [XGTACX_site5428],8.13 ± 0.38
11,GGACAACAAACAAACACACACAAAAAAAAAATAAAA [CACACA_site3791],8.5 ± 0.68
12,TATATCTGTTTATATTGTACACATATATATATATAT [XGTACX_site714],10 ± 0.27
13,GGCAATACATAATAATGTACATAATTATATAATATT [XGTACX_site3739],8.62 ± 0.45
14,TATATATATATATAATGTACATATAATATATTTATT [XGTACX_site7892],9.85 ± 0.42
15,TGCATATACGCAAGCACACATATATATATATATATA [CACACA_site1069],10.2 ± 0.51
16,TTTTGATTTCCTATTGCACACTTTTTTTAAGTTTAT [CACACA_site1056],8.94 ± 0.32
17,TAAATATATTAATACACACACGATATGTACAAAAAA [CACACA_site540],8.79 ± 0.36
18,GCTTAATGTCATATATCACACATGAAAATATATATA [CACACA_site5089],8.62 ± 0.45
